According to the supplement of paper PMC3334620:
Whole data set: some 33,000 sequences, median “E-score (-0.5 to 0.5)” near -0.032, cut for the highest 2% near 0.36. The list shows a part of the results.

Target: T1, Sko1 (UniProt Q02100)
T1 sequence: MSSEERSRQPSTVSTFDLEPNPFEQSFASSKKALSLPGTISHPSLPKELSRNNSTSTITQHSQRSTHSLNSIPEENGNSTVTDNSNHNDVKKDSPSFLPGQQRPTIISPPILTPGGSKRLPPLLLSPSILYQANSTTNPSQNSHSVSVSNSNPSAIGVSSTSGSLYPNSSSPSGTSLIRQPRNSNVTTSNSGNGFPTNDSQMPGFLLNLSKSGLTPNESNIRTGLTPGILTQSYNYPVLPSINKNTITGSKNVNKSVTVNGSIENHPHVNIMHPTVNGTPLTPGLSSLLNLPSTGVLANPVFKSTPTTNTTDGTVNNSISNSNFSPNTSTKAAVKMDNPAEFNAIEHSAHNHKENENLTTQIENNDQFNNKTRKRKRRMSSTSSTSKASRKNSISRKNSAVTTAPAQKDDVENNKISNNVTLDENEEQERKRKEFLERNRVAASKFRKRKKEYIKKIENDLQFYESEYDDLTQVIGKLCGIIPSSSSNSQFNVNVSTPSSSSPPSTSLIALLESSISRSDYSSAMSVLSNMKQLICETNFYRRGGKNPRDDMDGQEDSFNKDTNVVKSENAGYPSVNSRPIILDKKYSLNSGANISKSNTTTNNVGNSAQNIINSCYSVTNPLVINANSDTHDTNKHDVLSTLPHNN
Test: PBM E-score (8-mer binding enrichment) (E-score (-0.5 to 0.5)); higher = stronger / more preferred TF binding; most listed sequences are background and not binding sites
Conditions: protein concentration: 200 nM; construct: GST-full length
Experimental: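 Universal 'all 10-mer' protein binding microarrays (Agilent AMADID 015681) probed with GST-tagged S. cerevisiae TFs (full-length or DBD) made by in vitro transcription/translation (PURExpress), about 100-200 nM. Bound TF was detected with fluorescent anti-GST. Each ungapped 8-mer (which stands for itself and its reverse complement) is scored by the PBM enrichment score (E-score), a modified Wilcoxon-Mann-Whitney statistic from -0.5 to +0.5, computed with the Universal PBM Analysis Suite. Scale: above 0.35 generally sequence-specific binding.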

Row | Sequence | PBM E-score
1 | AACAATGC | 0.167
2 | TCTCCACA | -0.0125
3 | CAGAGGCC | -0.216
4 | CACTGCGG | -0.0295
5 | GTATGGAC | 0.0458
6 | GCGCACGA | 0.0675
7 | GGATATCA | -0.0424
8 | AAGACCCT | -0.143
9 | AAGGACCC | -0.152
10 | ACGAGATA | 0.207
11 | GAAAATCC | -0.00172
12 | AACTCCCC | -0.164
13 | TCTACTCA | 0.151
14 | CCTATTCA | -0.286
15 | CCGTAATC | 0.111
16 | CACTTGGC | -0.0585
17 | CCGTCGTA | 0.11
18 | CCTTAGAG | -0.379
19 | CGAACTCG | -0.106
20 | AGGCGATG | -0.143
21 | GAGAGGAC | -0.0889
22 | CCTCAGCA | -0.301
23 | ACTCGCAG | -0.203
24 | GAACTGTC | -0.209
25 | TTATAAAA | 0.212

Row | Sequence | PBM E-score
26 | AACTCCCA | -0.227
27 | ACACCTTG | 0.00022
28 | AGGCCTAA | -0.0496
29 | ATAATATG | 0.221
30 | CCCCTGTC | -0.35
31 | CCGTTTTC | 0.0601
32 | ACCTTGTA | 0.0904
33 | GATCCCTA | -0.212
34 | GTCGGTGA | 0.049
35 | CACGAAAA | 0.222
36 | CAAAACTA | 0.121
37 | AAGCTGCC | -0.177
38 | AATCCTCA | -0.012
39 | GGATCGAA | -0.0912
40 | AAATAGCG | 0.0959
41 | CAACCGTA | 0.0183
42 | CGCTATCA | -0.0117
43 | GACGCACC | 0.203
44 | CCGAGAAC | -0.0868
45 | ACGCTGCA | 0.066
46 | AAGCTCAT | -0.0568
47 | CCTCACCC | -0.148
48 | GCTCTCAC | -0.236
49 | AGGATCCA | -0.155
50 | AACCTCTT | -0.0138

Row | Sequence | PBM E-score
51 | AACGCTAC | 0.0935
52 | GCAAATCA | 0.108
53 | ATATCGTC | 0.316
54 | AAGTCCGC | -0.223
55 | CTCCGCTA | -0.292
56 | CGCCTGCC | -0.299
57 | GCTACCGA | -0.122
58 | ACAGAACG | -0.0253
59 | AGGTCCGG | -0.203
60 | GAAAGTTC | -0.0105
61 | GATCGAAA | -0.0275
62 | AAGAGTTC | -0.199
63 | GAAGATTC | -0.0232
64 | TCCTTCGA | -0.0512
65 | ATAAGGTA | -0.00808
66 | CCGCCTAA | -0.188
67 | GCTGCCGA | -0.321
68 | GTACTCTA | 0.0677
69 | CTTTCGCC | -0.178
70 | GAACACTC | -0.0501
71 | ACAACGCT | 0.0194
72 | AGTAGGTA | 0.0816
73 | AGACAAGA | 0.0367
74 | TAACACAA | 0.133
75 | CGGTAGAC | -0.0418

Row | Sequence | PBM E-score
76 | AATTGCGA | 0.0547
77 | AACGTCCT | 0.0619
78 | AATATCAA | 0.0394
79 | AGCTTGGA | -0.316
80 | ACAGGTCC | -0.357
81 | AGATCTTC | -0.00945
82 | ATTGCTGA | 0.104
83 | GATAGAAC | 0.166
84 | ATCCGGAC | -0.118
85 | CTCGAGCC | 0.0866
86 | AAGAACGC | 0.0981
87 | ATTGGTTG | -0.0115
88 | CTGTAATA | 0.042
89 | ATAAAAAT | 0.188
90 | CCCGGGGA | -0.257
91 | CCCCATTA | -0.211
92 | ATTTACAC | 0.132
93 | GAATGTAC | 0.0361
94 | CCGGCCAG | -0.158
95 | GGATCAAC | 0.0572
96 | CAATGTAC | -0.0145
97 | ATACTAGC | -0.0465
98 | GATGACTA | 0.0669
99 | ATTAGGAA | 0.0293
100 | AACGTTAA | 0.243

Row | Sequence | PBM E-score
101 | AGCGGACT | -0.273
102 | CGGCTAAC | -0.0414
103 | GATTTCCC | -0.0614
104 | GATTGCAC | 0.0147
105 | CGAATTGA | 0.079
106 | TGTGAAAA | 0.12
107 | ACATATAG | 0.121
108 | AAGGAACT | -0.262
109 | CTCCACCC | -0.261
110 | GATAGATA | 0.108
111 | GATCAGGA | -0.275
112 | AAGATGGT | 0.00653
113 | ACAGGACT | -0.0484
114 | ACGTAAAG | 0.461
115 | CCTCTGCG | -0.251
116 | AGTATTGA | 0.16
117 | AAACGACA | 0.217
118 | ACGCGTCG | 0.237
119 | CGATTTTC | 0.23
120 | CGCGTGTA | 0.227
121 | TCTGTACA | 0.0232
122 | CCTAGTCC | -0.26
123 | AGATCTGA | -0.0388
124 | AAGGCGGG | -0.098
125 | CTCAGCCC | -0.249

Row | Sequence | PBM E-score
126 | GTCGCTCA | -0.0393
127 | TCCATCCA | -0.18
128 | TCCTTCAA | -0.0364
129 | ACGATGTG | 0.135
130 | CATTCTCC | 0.00192
131 | AGCTACGA | 0.06
132 | GACTAGTA | -0.0126
133 | ACTATTTC | 0.0893
134 | ACCCCCCG | -0.306
135 | ACAAGCTC | -0.224
136 | CGAAGGAC | -0.158
137 | GGCCAGCC | -0.217
138 | CACTGTCG | -0.11
139 | AATCAGAA | 0.0831
140 | AATTTGAG | -0.00828
141 | ATCTCCAT | -0.125
142 | GGACTGAC | -0.139
143 | ATTTATTA | 0.25
144 | TTTGAAAA | 0.254
145 | TGGACAAA | 0.00772
146 | CCACTGAC | -0.031
147 | CGTTGCAC | 0.11
148 | GATATCAC | 0.145
149 | CCGTTTCG | -0.17
150 | CGCACCGA | 0.06

Row | Sequence | PBM E-score
151 | AATTCGAC | -0.287
152 | ACAGTTCG | -0.014
153 | AGAGCGTA | -0.00503
154 | CTTGTGCA | -0.154
155 | ACCCTACC | -0.126
156 | TACGATGA | 0.326
157 | CCTGTAGC | -0.288
158 | GCCTTAAC | -0.145
159 | CTCTGGGC | -0.164
160 | AGGGGTAA | -0.118
161 | CGAGGCGC | -0.192
162 | AACACCGG | -0.092
163 | AACCGGGG | -0.131
164 | GACGCGCA | 0.106
165 | AATGACGC | 0.478
166 | AGTGAGCA | 0.00764
167 | ATCGAGAG | -0.0574
168 | CGACGCGC | -0.0314
169 | TATCATAA | 0.201
170 | CGAACCGC | 0.0504
171 | GCGCACAC | -0.133
172 | CGCAACGC | 0.083
